The values that follow come from PMC8886574, “Synthesis, physicochemical characterization and neuroprotective evaluation of novel 1-hydroxypyrazin-2(1H)-one iron chelators in an in vitro cell model of Parkinson's disease” (Dalton Transactions (Cambridge, England : 2003), 2022).

This data set in a line: Protonation constants (log K) of ligands by UV-visible spectrophotometric titration vs. pH. To be noted: Solvent MeOH/H2O (80/20 w/w). Format: physicochemical. The procedure:
For ligand 10a, protonation constants of the ligand were studied in both media while complexation studies were carried out only in the mixed solvent for solubility reasons.

Consider `Cc1nc(Cc2ccc(O)cc2)c(=O)n(O)c1C` [Ligand 6d, 1-Hydroxy-3-(4-hydroxybenzyl)-5,6-dimethylpyrazin-2(1H)-one], for which the “log K LH2” value is given as 5.96(1) and the “log K LH3” value is 0.94(1).

With `O=c1cncc(-c2ccccc2)n1O` [Ligand 10a, 1-Hydroxy-6-phenylpyrazin-2(1H)-one], the “log K LH2” value is given as “∼−0.9”.

`Cc1nc(Cc2ccccc2)c(=O)n(O)c1C` [Ligand 6c, 1-Hydroxy-3-benzyl-5,6-dimethylpyrazin-2(1H)-one]: the “log K LH2” value is reported as 0.66(1).
